Values joined by “and” are separate entries in the source; they are usually repeats but may differ in a detail not shown here. Equal entries are not always repeated. Out of some 110,000 compounds screened, about 230 (0.21%) showed an effect of 50% or more. The list shows a part of the results.
biological target: DPAP1 (Plasmodium falciparum, UniProt Q8IIJ9); experiment: primary screen, percent inhibition; read by cleavage of a fluorogenic dipeptide substrate; higher = more effect of the substance; parameters: species or system P. falciparum D10 trophozoite lysates; single well
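Also: 30 min substrate incubation versus DMSO and 10 µM JCP410 controls.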

DPAP1, sequence (Q8IIJ9 whole entry, looked up): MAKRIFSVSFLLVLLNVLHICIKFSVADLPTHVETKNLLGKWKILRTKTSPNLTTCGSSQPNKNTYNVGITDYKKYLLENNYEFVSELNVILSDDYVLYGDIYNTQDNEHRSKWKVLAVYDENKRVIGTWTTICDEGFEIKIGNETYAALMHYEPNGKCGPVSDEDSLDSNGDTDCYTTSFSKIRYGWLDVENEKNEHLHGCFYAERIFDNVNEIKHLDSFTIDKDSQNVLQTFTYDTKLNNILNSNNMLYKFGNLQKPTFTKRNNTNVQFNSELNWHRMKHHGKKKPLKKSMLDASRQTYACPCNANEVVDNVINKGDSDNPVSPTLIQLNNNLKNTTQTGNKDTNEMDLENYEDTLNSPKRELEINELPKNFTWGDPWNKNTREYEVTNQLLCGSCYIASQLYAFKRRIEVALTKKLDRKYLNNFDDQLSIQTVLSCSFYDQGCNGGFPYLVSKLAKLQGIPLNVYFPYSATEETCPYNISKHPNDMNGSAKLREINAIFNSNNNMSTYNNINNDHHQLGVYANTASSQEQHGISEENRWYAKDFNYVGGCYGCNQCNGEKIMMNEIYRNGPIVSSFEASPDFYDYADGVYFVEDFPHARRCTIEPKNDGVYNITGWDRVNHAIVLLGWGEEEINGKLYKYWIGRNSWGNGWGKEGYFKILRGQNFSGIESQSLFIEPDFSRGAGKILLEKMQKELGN

SMILES	% Inhibition @ 10 uM
COc1ccc(/C=C/C2=NN(c3ccccc3)C(c3ccc(OC)cc3)C2)cc1 (stereo not drawn)	0.968%
Cc1cccc(C)c1NC(=O)c1cc(F)c(Cl)nc1Cl	6.69%
Cc1ccccc1CN1CCN(C/C=C/c2ccccc2)CC1	-5.57%
CCN1CCN(Cc2cccc(F)c2)CC1	-0.192%
O=C(c1ccc(Cl)cc1Cl)N1CCN(c2ccc(Cl)cc2)CC1	5.12%
Cc1ccc(SC(C)C(=O)Nc2ccccc2C(=O)NC(C)C)cc1 (stereo not drawn)	-5.13%
CS(=O)(=O)N(CC(=O)NCc1ccc(Cl)cc1)c1cccc(F)c1	-0.48%
O=C(/C=C/c1ccccc1)Nc1c(-c2ccccc2)nc2ccccn12	-3.21%
Cc1cccc(C)c1-n1ncc(C(=O)NC2CCCC2)c1C1CCNCC1	-9.36%
CC(C)CC(=O)Nc1ccc(N2CCN(S(C)(=O)=O)CC2)cc1	-6.02%
C/C(=N\N=C(/C)c1nnn(-c2nonc2N)c1C)c1ccc(O)cc1	1.76%
CCN(CC)CCNC(=O)c1c(C)oc2c1C(=O)c1ccccc1C2=O	0.0289%
NC(=O)NC(=O)c1nc2ccccc2nc1O	0.634%
CN(C)C(=O)c1ccccc1-c1ccccc1C(=O)O	-9.55%
COc1ccc(NC(=O)c2cc(C)c(C)o2)cc1	4.98%
COc1ccc(CCNC(=O)c2cc3cccc4c3n2CCS4)cc1OC	-1.83%
Cc1[nH]c2ccccc2c1/C=C1\SC(=S)NC1=O	2.4%
COc1ccccc1-n1c(C)cc(C(=O)O)c1C	5.3%
CCSc1ncc(Cl)c(C(=O)NCc2ccc(OC)cc2)n1	2.19%
CC1=C(C(=O)Nc2ccccc2)C(c2cccc3ccccc23)NC(S)=N1 (stereo not drawn)	-3.44%
Cc1ccc2c(c1)c1c3n2CC(=O)N(Cc2ccccc2)C3CCC1 (stereo not drawn)	-4.96%
CC(C)NC(=O)C(=O)NCc1ccccn1	-0.233%
Cc1cc(-c2ccc(S(=O)(=O)N3CCCCCC3)s2)on1	-5.12%
CC1=C(C(=O)Nc2ccc(C)cn2)C(c2ccc3c(c2)OCO3)C2=C(O)CCCC2=N1 (stereo not drawn)	-5.79%
CCOc1ccccc1NC(=O)C1=C(C)NC(=O)NC1c1ccc(OC)cc1 (stereo not drawn)	-7.46%

SMILES	% Inhibition @ 10 uM
CC(C)CN1C(=O)NC(NC(=O)c2cccnc2)(C(F)(F)F)C1=O (stereo not drawn)	-1.72%
Cc1cc(NS(=O)(=O)c2ccc(NS(=O)(=O)c3ccc(Br)cc3)cc2)nc(C)n1	-0.884%
CCC(O)c1ccc(OCc2ccc(C(=O)OC)cc2)c(OC)c1 (stereo not drawn)	0.146%
O=C(CN(c1ccc(Br)cc1)S(=O)(=O)c1ccccc1)N1CCCCCC1	9.02%
COc1ccc2c3ncn(CCCN4CCCCC4C)c(O)c-3nc2c1 (stereo not drawn)	-0.0235%
O=[N+]([O-])c1cccc(C2=NN(c3nc(-c4ccc(Cl)cc4)cs3)C(c3ccc(F)cc3)C2)c1 (stereo not drawn)	2.54%
O=C(/C=C/c1ccccc1)Nc1cccc(C(F)(F)F)c1	6.09%
CC(C)C[C@H](NC(=O)c1ccc(NC(=O)OCCCc2ccccn2)cc1)C(=O)NCC#N	3.66%
Cc1noc(NS(=O)(=O)c2ccc(NC(=O)Nc3ccc(Cl)cc3)cc2)c1C	6.82%
O=C(CCC(=O)n1ncc2ccc(Cl)cc21)NCCc1ccc(Cl)cc1	8.34%
Cc1ccc(/C=C(\NC(=O)c2ccc(C)cc2)C(=O)N2CC3CC(C2)c2cccc(=O)n2C3)cc1 (stereo not drawn)	0.111%
FC(F)(F)c1cccc(N2CCNCC2)c1	3.16%
COc1ccc(-c2ccc(C3Nc4ccc5ccccc5c4C4=C3C(=O)CC(C)(C)C4)o2)cc1Cl (stereo not drawn)	1.29%
c1ccc(Cn2c3c(c4ccccc42)CCc2nonc2-3)cc1	3.04%
Cc1ccc(-c2nnc3c4cnn(Cc5ccccc5)c4ncn23)cc1	-3.96%
CCCN(CCC)C(=O)Cn1c(=O)n(CC(=O)NCc2ccco2)c(=O)c2sccc21	-1.21%
Cc1ccc2c(c1)cc1c(=O)n(CC(=O)N3CCCCCC3)nc(C)n12	3.29%
COc1cccc(CNC(=O)CN(C)S(=O)(=O)c2c[nH]cn2)c1	3.24%
COc1ccc(-c2nc(-c3cccc4ccccc34)c(-c3ccccc3)[nH]2)cc1	3.18% and 3.48%
COc1cccc(NC(=O)COc2ccccc2C(C)C)c1	1.64%
CCC/N=c1\c(NC(=O)c2ccc(Cl)cc2)c(O)oc2ccccc12	-0.984%
O=[N+]([O-])c1cc(C(F)(F)F)ccc1NS(=O)(=O)c1ccc(Cl)cc1	-1.92%
CCC(C)c1ccccc1OCCOc1ccc(/C=C2/C(=N)N3OC(C)=CC3=NC2=O)cc1OC (stereo not drawn)	-3.23%
C=CCOc1ccc(C2C3=C(N=C(C)/C2=C(/O)OC)c2ccccc2C3=O)cc1Cl (stereo not drawn)	-0.169%
CCN(CC)C(=O)C1CCCN(Cc2cc(C(C)(C)C)c(O)c(C(C)(C)C)c2)C1 (stereo not drawn)	-0.969%

SMILES	% Inhibition @ 10 uM
CCC(Cc1ccccc1)NS(=O)(=O)c1cccc2nsnc12 (stereo not drawn)	0.457%
O=C(c1cccc(Br)c1)N1CCN(c2ccc([N+](=O)[O-])cc2)CC1	1.48%
COc1ccccc1-c1nc2s/c(=C\c3cc(OC)c(OC)c(OC)c3)c(=O)n2n1	2.24%
CCCCC(=O)N1CC(C)N(C(=O)CCCC)CC1C (stereo not drawn)	2.38%
CCc1ccc(N(CC(=O)NCc2cccnc2)S(C)(=O)=O)cc1	-4.57%
COc1cc(/C(O)=C(\C#N)c2nc3ccccc3[nH]2)cc(OC)c1OC	1.37%
CC(=O)Nc1ccc2c(c1)C(O)Cc1ccccc1S2 (stereo not drawn)	-11.2%
O=C(COc1ccc(S(=O)(=O)NCc2ccccc2)cc1)NC1CCCCCC1	2.5%
Cc1cc(Cl)cc(C)c1OCCN1CCCC1	-3.32%
Cc1ccc(Cc2nn3c(=O)/c(=C\c4sccc4C)sc3nc2=O)cc1	2.9%
COc1ccc(-c2cc(C(=O)O)c3ccccc3n2)cc1	-2.37%
COC(=O)C1=CN(C(C)C)C=C(C(=O)OC)C1c1ccccc1OC	4.99%
N=C(NOC(=O)COc1ccccc1)c1ccc(Br)cc1	-1.26%
Cc1ccc2oc(-c3cccc(NC(=O)Cn4cnc5c(=O)n(C)c(=O)n(C)c54)c3)nc2c1	11.6%
CC(=O)N1N=C(c2ccccc2)CC1c1cccc(Br)c1 (stereo not drawn)	0.324%
COc1cccc2c1Oc1nc(-c3cccc(O)c3)nc(S)c1C2	49.7%
CCOC(=O)/C=C(\C)Sc1cc(=O)oc2ccccc12	-5.46% and -2.98%
Cc1cc(NCc2ccccc2)c2nncn2n1	6.73%
CN1CCN(c2ccc3nnc(CCC(=O)N4CCC(Cc5ccccc5)CC4)n3n2)CC1	-2.84%
Fc1ccc(-c2nnc(-c3ccccc3Cl)o2)cc1	0.815%
O=C(Nc1cccc(NC(=O)C2CCCO2)n1)C1CCCO1 (stereo not drawn)	0.389%
CC1CCCCN1S(=O)(=O)c1ccc([N+](=O)[O-])cc1 (stereo not drawn)	-3.04%
CC(C)Nc1ncnc2onc(-c3cccc(Cl)c3)c12	-2.41%
C=CCN(Cc1nc(-c2cccc(C)c2)no1)S(=O)(=O)c1ccc(C)cc1	9.89%
O=C(O)CCn1cnc2onc(-c3ccc(F)cc3)c2c1=O	6.64%

SMILES	% Inhibition @ 10 uM
CCOc1ccc2nc(N(CCN(C)C)C(=O)c3ccc(Br)s3)sc2c1	-2.22%
CCOC(=O)c1sc(N2C(=O)c3oc4ccccc4c(=O)c3C2c2ccc(C)o2)nc1C (stereo not drawn)	0.189%
O=C(c1ccco1)N1CCN(c2ncnc3onc(-c4ccc(Cl)cc4)c23)CC1	-9.6%
CCN1CCCC1CNC(=O)C1c2ccccc2C(=O)N(CC(C)C)C1c1cccs1 (stereo not drawn)	0.589%
COc1ccc(/C=C2\N=C(c3ccc(C)cc3)OC2=O)cc1Br	1.76%
O=c1oc2c(Cl)cc(Cl)cc2cc1-c1nc(-c2ccc([N+](=O)[O-])cc2)cs1	-2.32%
CC(=O)N(C)c1ccc(NC(=O)/C=C\C(=O)O)cc1	1.63%
COC(=O)c1c(C(=O)OC)c2ccccn2c1C(=O)c1ccc([N+](=O)[O-])cc1	-4.35%
O=C1C2CC3CC1CC(C(=O)O)(C3)C2	5.09%
COc1cc(OC)cc(C(=O)Nc2ccc(Br)c(C)c2)c1	5.99%
CCC(C)NC(=O)Cn1cc(S(=O)(=O)NC)c(S(=O)(=O)NC)c1 (stereo not drawn)	-1.77%
Cc1ccccc1OCC(=O)Nc1ncccn1	-6.94%
COC(=O)c1cc(C(O)c2ccc(C(=O)O)c(C(=O)OC)c2)ccc1C(=O)O	3.06%
Cc1onc(-c2ccccc2)c1C1=N/C(=C/C(Cl)=C/c2ccccc2)C(=O)O1	8.06%
O=C(NCC1CCCO1)C1CCN(S(=O)(=O)c2c[nH]cn2)CC1 (stereo not drawn)	1.23%
CC1=C(C(=O)OC2CCCC2)C(c2ccccc2)C2=C(O)CCCC2=N1 (stereo not drawn)	2.92%
COc1cccc(/C=C(\C#N)c2nc(-c3cccs3)cs2)c1	0.815%
CCS(=O)(=O)n1nc(-c2cccnc2)nc1NCc1ccc(F)cc1	-4.75%
CCn1cc(CN(C)C(=O)CC23CC4CC(CC(C4)C2)C3)cn1	2.95%
Cc1ccc(C(=O)N2CCn3cccc3C2c2ccccc2)cc1 (stereo not drawn)	-2.19%
CCOc1ccccc1/C=C1/SC(=O)N(CN2CCOCC2)C1=O	1.92%
CN(C)CCn1c2ccccc2n2cc(C(C)(C)C)nc12	-4.11%
O=C(NCCCO)c1cccc(Br)c1	3.01%
CC1=C(C(=O)Nc2ccc(Cl)cc2)C(c2ccccc2)NC(=O)N1 (stereo not drawn)	6.09%

— paper PMC6919601, “Identification of Plasmodium dipeptidyl aminopeptidase allosteric inhibitors by high throughput screening” (PLoS ONE, 2019)
